# From publication PMC12136788
# Some of the results follow.
# T1: UNK ZnF1-3 (human, UniProt Q9C0B0 31-174)
# T1 sequence: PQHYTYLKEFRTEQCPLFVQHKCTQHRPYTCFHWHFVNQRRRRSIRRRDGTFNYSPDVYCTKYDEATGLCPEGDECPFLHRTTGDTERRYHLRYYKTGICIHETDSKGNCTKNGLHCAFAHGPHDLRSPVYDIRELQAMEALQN
# B1: chr18:56900473:56900474:+_ENSMUSG00000024590_ENSMUST00000025486|mus_hu|FALSE|FALSE (ssRNA)
# RNA: GGGAGUUCUACAGUCCGACGAUCAACAUCAAUUUCUUCGAUGCAAACAUUUCCAGUGGCUGAGGCGGAAUGAGAGAUGCUAACACUACUACUCGCCUCUGAUUCUUCCACAUCAACCCUCUUCCGCUUUCCUCUAGUUGUACGCAACAGAGGAUUGAGCAUCA
# B2: chr7:54823571:54823572:-_ENSG00000132432_ENST00000352861|hu_mus|hu_hu_hu_mus_False|1_8 (ssRNA)
# RNA: GGGAGUUCUACAGUCCGACGAUCUCCCAUGAUAGCAAAUCCUAUAGCUGUAGCCAUGGCAAUCUUCUGGAAUUCUUUUCUGUCGGGUUUGGUGCAUCUUUUAACCAGCCGAAUUGAGUCCUUUACAAACUGCCGACUUGGCUCCAACAGAGGAUUGAGCAUCA
# B3: chr16:94664741:94664742:+_ENSMUSG00000040785_ENSMUST00000117648|mus_hu|mus_mus_mus_hu_False|18_78 (ssRNA)
# RNA: GGGAGUUCUACAGUCCGACGAUCUGGUACUGAUCUUGGUAGCUGAUAUUCAGGAGAAAUGUUGGCCAAGGGUGUAUAUAUGCUGGUGUACUGGGGCAAACCUGGUAACACGUUUAUGUACGCUGGUGGUGUCUGGGUGAUAUCCAACAGAGGAUUGAGCAUCA
# B4: chr1:39494564:39494565:+_ENSG00000168653_ENST00000372967|hu_hu|hu_hu_hu_mus_True|8_68 (ssRNA)
# RNA: GGGAGUUCUACAGUCCGACGAUCAUGCAUUCGCCUCAUCGUUUUGUACCGAAGCAAGCACUCUUCGAAAUCAUCAUACUCUAUCUUGCACUCCUUUUUCGCCCGGGUCCCACCGAUCCCGUGUGCACAUUCUAUCCACUCUUUCAACAGAGGAUUGAGCAUCA
# B5: chr4:77932910:77932911:+_ENSG00000138758_ENST00000541121|hu_hu|motif|central (ssRNA)
# RNA: GGGAGUUCUACAGUCCGACGAUCUUUAAUCUUCAAUUCCUCUUGCAGGUAGGCCUCGAACUGGGCAUCAAUAUAUUCGGCGGUCGGCUUAUAGCUGUCAUCUUUAUUUAUCUGGUCUCCAAAUCCCACGGUGUCAACAAUGGUCAACAGAGGAUUGAGCAUCA
# B6: 107648809_107648929_2328_3pUTR_ENSMUSG00000033685_ENSMUST00000126534|mouse|control|control (ssRNA)
# RNA: GGGAGUUCUACAGUCCGACGAUCCUGACUGAAACACCCUGACAAUCUAAGCGUUGACUGGUCCCCAGUCUUGGGGGAAAAGGUAAGGCUUCCAUCAGAAAGGCUCUUCAGAGGUCGGGUGCUACAGGUGGCUGUAAUCCCAGCCAACAGAGGAUUGAGCAUCA
# B7: chr6:41757443:41757444:+_ENSG00000214736_ENST00000398881|hu_mus|hu_hu_hu_mus_False|78_88 (ssRNA)
# RNA: GGGAGUUCUACAGUCCGACGAUCGAACCGUGCAGAGGCAACAUCUCGGAAUUCUGCGUGGACUCAAGGGGCAGUGGGGGGGGGUUCAGGCAAGGAGAGGGAGUCAACUUCAGCUGCCACUCAGGUAGGAUCUUGUGGUCACAGCAACAGAGGAUUGAGCAUCA
# B8: chr2:135163197:135163198:+_ENSMUSG00000051177_ENSMUST00000110116|mus_mus|FALSE|FALSE (ssRNA)
# RNA: GGGAGUUCUACAGUCCGACGAUCGAAGAGUUGAGGCAUGUAGUUGGAUGAAUCCACACGUGUUCCCUUGGGAUAUAUCCUGCUAAGUUGCAUCUUGUUGUAUUCUACAAAUUCCACCGGAGACUUUGUAAGUUGUUCAAGUCCCAACAGAGGAUUGAGCAUCA
# B9: 17198956_17206531_622_3pUTR_ENSG00000003987_ENST00000180173|human|control|control (ssRNA)
# RNA: GGGAGUUCUACAGUCCGACGAUCCACCGGGCACUGAAGCCGGACAGGGGCUGGCUGCUCCGGCAGAUGGAGGCGUGGUUAUCUUUAUAAUAGUAAGAAAGGACAGGAAAUCGCCGUCUACUCCGGAAUUUGGAACUCCCCACUCAACAGAGGAUUGAGCAUCA
# B10: chr4:33586012:33586013:+_ENSMUSG00000028274_ENSMUST00000108153|mus_hu|FALSE|FALSE (ssRNA)
# RNA: GGGAGUUCUACAGUCCGACGAUCUGAGAUGCUGUUACACACAGCCAUGGCAGUGUUGUAGGCAUUAGGAAAACUUUUGUCUGUUCUCUGUCUCAUGAAGACCCAGCUGUUGUUCUCAAAUUUGCAUUCUAUAAUUUUGUUGUCCAACAGAGGAUUGAGCAUCA
# B11: 63786348_63789542_463_CDS_ENSMUSG00000027823_ENSMUST00000029405|mouse|control|control (ssRNA)
# RNA: GGGAGUUCUACAGUCCGACGAUCUCCAAAGACUUUAUUCAUCAUCUGCAUGCCAUAGCAAAUUCCUAGAAUAGGCUUGCCAAUGGUAAAUAUUGCUGGAUCAAACCAGGGAGCAUCCUCUGCAUACACAGAAUUAGGUCCUCCCAACAGAGGAUUGAGCAUCA
# B12: chr19:8913615:8913616:-_ENSMUSG00000071658_ENSMUST00000096259|mus_mus|motif|central (ssRNA)
# RNA: GGGAGUUCUACAGUCCGACGAUCGAGGGGGCACCAAACCCUGCCUCAGAUAGGUGCCCCACCCUGCCAGGACUUGGAGCGGAAAAUAUCCGUAGCACUGACAGUUAAUGCAGAGAAGGUCACUAGAGAUGCUCAGACGAGAUCCAACAGAGGAUUGAGCAUCA
# B13: chr12:120565580:120565581:-_ENSG00000089154_ENST00000300648|hu_mus|FALSE|FALSE (ssRNA)
# RNA: GGGAGUUCUACAGUCCGACGAUCGGGAGGAGGCGAUCUUCAGUUGUGUGUGGGUUGGAUUUAAGGCUUUGGCUCUGGUCGCUUGAUGUACUAAAAUACUUUCUGGGAAUGCCAUCUCCUGAGCUCCCCCUUGGAAUAAAAGUACAACAGAGGAUUGAGCAUCA
# B14: 100592288_100605063_171_5pUTR_ENSMUSG00000023032_ENSMUST00000023776|mouse|control|control (ssRNA)
# RNA: GGGAGUUCUACAGUCCGACGAUCCCUCUGAUAGCUGAGGACGCCGUCCGGCUCGUUGCUCCCGGCGGGCAUGGCCGGGCGGAGCCUGGUCUCGCCGGUAGGUUCCAGGUUGAGCUGCAGCAGUCCGCGCCCUGUAGUCCAGUGCAACAGAGGAUUGAGCAUCA
# B15: chr14:66974463:66974464:+_ENSMUSG00000022044_ENSMUST00000074523|mus_hu|mus_mus_mus_hu_False|28_68 (ssRNA)
# RNA: GGGAGUUCUACAGUCCGACGAUCUUGUAGGACGACUUAUUCAGGGGAUCGGCCAGGAAGCAGGAGCAGAACAGAGACACCAGCGGGAGCUCCUUCAUCUUCUCUUUAUAGGCUGCAAGGGUCAUGUUUCUGGGAUCUGGUGGCCAACAGAGGAUUGAGCAUCA
# B16: chr8:8618132:8618133:-_ENSMUSG00000001300_ENSMUST00000001319|mus_hu|FALSE|FALSE (ssRNA)
# RNA: GGGAGUUCUACAGUCCGACGAUCCUUCAAACAAAGGGACAGUUGGUAGAUUGUCAUAUUCUGCACCAGACACAAAACAGACGCACAGAACACUUUUCAAUUGGUUGCAGGGAACUCUUUUAUCAAUUCAUCUGAUUUUUCACACAACAGAGGAUUGAGCAUCA
# B17: chr3:176743309:176743310:-_ENSG00000177565_ENST00000430069|hu_mus|FALSE|FALSE (ssRNA)
# RNA: GGGAGUUCUACAGUCCGACGAUCUGUACACAUUCAUAGUCGGUCCAUGGCUUCCAACUAGUAACGCUAUUUCCGAAGGUCUAAGACACAAACUGAACCGUCCGAAGCACUGGCUCCAACUUUGUCUCCUGCUGCGUUCCAGCACAACAGAGGAUUGAGCAUCA
# B18: 163922485_163922605_671_3pUTR_ENSMUSG00000018209_ENSMUST00000018353|mouse|control|control (ssRNA)
# RNA: GGGAGUUCUACAGUCCGACGAUCUCAGCCAUUUCUAUGGCAGUUAUUCCCAGAGACCAGAUGUCUGCCACACAGUUGUACCCAAUUUCCUGAAUAACUUCAGGAGCCAUCCAAAACGGGGUCCCUAUUACUGUAUUCCUCUUUCAACAGAGGAUUGAGCAUCA
# B19: chr13:98016622:98016623:+_ENSMUSG00000041773_ENSMUST00000041623|mus_mus|motif|central (ssRNA)
# RNA: GGGAGUUCUACAGUCCGACGAUCGACGAAUGCAGUAGGGAUCAGAGAGUAGGGAACAGUGGUUAUGCUGUUCCACACAUCGGAAGUUGGGUCGUAACAGUCCAAAGUCUUGCAGCGCUGAAUGCCGAAGUACCCUCCAACUACCAACAGAGGAUUGAGCAUCA
# B20: chr14:78183846:78183847:+_ENSG00000119705_ENST00000557342|hu_hu|hu_hu_hu_mus_False|48_108 (ssRNA)
# RNA: GGGAGUUCUACAGUCCGACGAUCUCUGUCUCAAAAAUCUUCAUCAGAUGUUUGAGCUCCGUGCAAAGCCUUUGCUCUUUGAGCUUGAACCUGGACCUAUGGGAGGGAAAGCACUGUCAGAAAAGGUAAUUUUUUUUUUAAAGACAACAGAGGAUUGAGCAUCA
# B21: 74719947_74720067_766_CDS_ENSG00000070495_ENST00000397625|human|control|control (ssRNA)
# RNA: GGGAGUUCUACAGUCCGACGAUCAUUAAACCAGGUAAUAGCUUCGUCUUGCUGGUUCCCUCCUUCGUCUCGGGUCACUUUGAUGAGUUCCCUGGGAGUGCUGGUAGGAAACAGGCACCAGCGCUUGUGGCCCUGAACUAAGGCCAACAGAGGAUUGAGCAUCA
# B22: chr8:35894604:35894605:-_ENSMUSG00000031529_ENSMUST00000033929|mus_hu|motif|central (ssRNA)
# RNA: GGGAGUUCUACAGUCCGACGAUCCUAUAGCAAUGCUUUAUAGAAGACAAACAGCUUAUUUCUAGGCUGUCAGGGACUUCGGGAAUAUUGAUGUUGUUAUUAGAAACAAUCCUCUGUAAUCCAGUCCCAGGUUGAAAUCUGAUCCAACAGAGGAUUGAGCAUCA
# Target: T1, UNK ZnF1-3
# Assay: nsRBNS (natural sequence RNA bind-n-seq); RBNS binding buffer (assumed for nsRBNS): 25 mM Tris pH 7.5, 150 mM KCl, 3 mM MgCl2, 0.01% Triton X-100, 500 ug/ml BSA, 20 U/ml SUPERase-In, 4 C; UNK is unkempt and MSI1 is Musashi-1; names of the RNAs are library labels; protein concentration not given here; high values mean tight binding
row,Binder,binding signal [enrichment R]
1,B1,0.954
2,B2,0.79
3,B3,0.888
4,B4,0.655
5,B5,1.16
6,B6,1.46
7,B7,2.45
8,B8,0.692
9,B9,1.48
10,B10,0.628
11,B11,0.762
12,B12,1.1
13,B13,1.17
14,B14,0.491
15,B15,2.47
16,B16,0.948
17,B17,0.948
18,B18,0.811
19,B19,0.882
20,B20,1.52
21,B21,0.595
22,B22,0.575
